Test results from a compilation of properties of binary mixtures (doi:10.1007/s10953-022-01154-2).
The densities may have been worked out from excess volumes.

Test: xn = mol fraction of the nth substance listed
Conditions: 101.3 kPa

SMILES: CC[n+]1ccn(C)c1.N#C[S-] + CC1COC(=O)O1
- mass density (293.15 K, x1 = 0.0989): 1195 kg/m3
- mass density (293.15 K, x1 = 0.4): 1164 kg/m3
- mass density (293.15 K, x1 = 0.499): 1155 kg/m3
- mass density (293.15 K, x1 = 0.599): 1146 kg/m3
- mass density (293.15 K, x1 = 0.7045): 1138 kg/m3
- mass density (293.15 K, x1 = 0.796): 1130 kg/m3
- mass density (293.15 K, x1 = 0.8942): 1122 kg/m3
- mass density (293.15 K, x1 = 1): 1116 kg/m3
- mass density (298.15 K, x1 = 0.2045): 1180 kg/m3
- mass density (298.15 K, x1 = 0.2984): 1170 kg/m3
- mass density (298.15 K, x1 = 0.499): 1151 kg/m3
- mass density (298.15 K, x1 = 0.796): 1127 kg/m3
- mass density (298.15 K, x1 = 0.8942): 1119 kg/m3
- mass density (298.15 K, x1 = 1): 1113 kg/m3
- mass density (303.15 K, x1 = 0.0989): 1185 kg/m3
- mass density (303.15 K, x1 = 0.2045): 1175 kg/m3
- mass density (303.15 K, x1 = 0.2984): 1166 kg/m3
- mass density (303.15 K, x1 = 0.4): 1156 kg/m3
- mass density (303.15 K, x1 = 0.499): 1147 kg/m3
- mass density (303.15 K, x1 = 0.599): 1139 kg/m3
- mass density (303.15 K, x1 = 0.7045): 1131 kg/m3
- mass density (303.15 K, x1 = 0.796): 1124 kg/m3
- mass density (303.15 K, x1 = 0.8942): 1116 kg/m3
- mass density (303.15 K, x1 = 1): 1109 kg/m3
- mass density (308.15 K, x1 = 0.0989): 1180 kg/m3
- mass density (308.15 K, x1 = 0.2045): 1171 kg/m3
- mass density (308.15 K, x1 = 0.2984): 1161 kg/m3
- mass density (308.15 K, x1 = 0.4): 1152 kg/m3
- mass density (308.15 K, x1 = 0.499): 1143 kg/m3
- mass density (308.15 K, x1 = 0.599): 1135 kg/m3
- mass density (308.15 K, x1 = 0.7045): 1127 kg/m3
- mass density (308.15 K, x1 = 0.796): 1120 kg/m3
- mass density (308.15 K, x1 = 0.8942): 1113 kg/m3
- mass density (308.15 K, x1 = 1): 1106 kg/m3
- mass density (313.15 K, x1 = 0.0989): 1175 kg/m3
- mass density (313.15 K, x1 = 0.2045): 1166 kg/m3
- mass density (313.15 K, x1 = 0.2984): 1157 kg/m3
- mass density (313.15 K, x1 = 0.4): 1148 kg/m3
- mass density (313.15 K, x1 = 0.499): 1140 kg/m3
- mass density (313.15 K, x1 = 0.599): 1132 kg/m3
- mass density (313.15 K, x1 = 0.796): 1117 kg/m3
- mass density (313.15 K, x1 = 0.8942): 1109 kg/m3
- mass density (313.15 K, x1 = 1): 1103 kg/m3
- mass density (318.15 K, x1 = 0.0989): 1171 kg/m3
- mass density (318.15 K, x1 = 0.4): 1144 kg/m3
- mass density (318.15 K, x1 = 0.499): 1136 kg/m3
- mass density (318.15 K, x1 = 0.796): 1114 kg/m3
- mass density (318.15 K, x1 = 1): 1100 kg/m3
- mass density (323.15 K, x1 = 0.0989): 1166 kg/m3
- mass density (323.15 K, x1 = 0.2984): 1148 kg/m3
- mass density (323.15 K, x1 = 0.4): 1140 kg/m3
- mass density (323.15 K, x1 = 0.7045): 1117 kg/m3
- mass density (323.15 K, x1 = 0.796): 1110 kg/m3
- mass density (323.15 K, x1 = 0.8942): 1103 kg/m3
- mass density (323.15 K, x1 = 1): 1096 kg/m3
- mass density (328.15 K, x1 = 0.0989): 1161 kg/m3
- mass density (328.15 K, x1 = 0.2045): 1152 kg/m3
- mass density (328.15 K, x1 = 0.2984): 1144 kg/m3
- mass density (328.15 K, x1 = 0.4): 1135 kg/m3
- mass density (328.15 K, x1 = 0.7045): 1113 kg/m3
- mass density (328.15 K, x1 = 1): 1093 kg/m3
- mass density (333.15 K, x1 = 0.2045): 1148 kg/m3
- mass density (333.15 K, x1 = 0.2984): 1139 kg/m3
- mass density (333.15 K, x1 = 0.4): 1131 kg/m3
- mass density (333.15 K, x1 = 0.499): 1124 kg/m3
- mass density (333.15 K, x1 = 0.599): 1117 kg/m3
- mass density (333.15 K, x1 = 0.7045): 1110 kg/m3
- mass density (333.15 K, x1 = 0.796): 1104 kg/m3
- mass density (333.15 K, x1 = 0.8942): 1097 kg/m3
- mass density (333.15 K, x1 = 1): 1090 kg/m3
- mass density (338.18 K, x1 = 0.0989): 1151 kg/m3
- mass density (338.18 K, x1 = 0.2045): 1143 kg/m3
- mass density (338.18 K, x1 = 0.4): 1127 kg/m3
- mass density (338.18 K, x1 = 0.499): 1120 kg/m3
- mass density (338.18 K, x1 = 0.599): 1113 kg/m3
- mass density (338.18 K, x1 = 0.7045): 1107 kg/m3
- mass density (338.18 K, x1 = 0.796): 1100 kg/m3
- mass density (338.18 K, x1 = 0.8942): 1093 kg/m3
- mass density (338.18 K, x1 = 1): 1087 kg/m3
- mass density (343.15 K, x1 = 0.0989): 1146 kg/m3
- mass density (343.15 K, x1 = 0.2045): 1138 kg/m3
- mass density (343.15 K, x1 = 0.2984): 1131 kg/m3
- mass density (343.15 K, x1 = 0.599): 1110 kg/m3
- mass density (343.15 K, x1 = 0.7045): 1103 kg/m3
- mass density (343.15 K, x1 = 0.796): 1097 kg/m3
- mass density (343.15 K, x1 = 0.8942): 1090 kg/m3

SMILES: CC1COC(=O)O1 (centres undefined) + CC[n+]1ccn(C)c1.N#C[S-]
- mass density (298.15 K, x2 = 0): 1200 kg/m3
- mass density (303.15 K, x2 = 0): 1194 kg/m3
- mass density (313.15 K, x2 = 0): 1184 kg/m3
- mass density (318.15 K, x2 = 0): 1179 kg/m3
- mass density (323.15 K, x2 = 0): 1173 kg/m3
- mass density (328.15 K, x2 = 0): 1168 kg/m3
- mass density (338.18 K, x2 = 0): 1158 kg/m3
- mass density (343.15 K, x2 = 0): 1152 kg/m3
